Read counts are not given, so values of variants with three or more changes are uncertain.
B1: LINE1-full (parent)
chain: UACGUAGGUGGUUUUCCCCUGAUAGUGCUAAGGGGGCCUGGAAGUUUGGACUGGGCAGAGCUCAACACAGCGUGGCAAAGUGGCUGUGGCUAGACUGCCUCUCUGGAUUCCUCGUCACUCAGCAGGGCAUCUCUGAGAGAAAUGCC

Variants of: B1
Experiment: self-cleavage, relative activity (ratio to wild type); higher = more cleavage; in vitro, sequencing; the parent is a self-cleaving ribozyme

| Variant | self-cleavage |
| --- | --- |
| U26C G74A A77G U109C | 1.21 |
| U26A C66U U73A A78G U119A A124G A129G | 0.03 |
| G25U C71U U115A | 0.9 |
| U26C C28U U47A A77U U115C U143C | 1.29 |
| U26C U29A A77G | 1.93 |
| U26G G44U G93U U115C U119C | 0.08 |
| G25A G49C A107G | 1.88 |
| U29A A57G A77G | 0.38 |
| G25A G58U G125A A138G | 0.04 |
| U26C C103A G126A A138G | 0.97 |
| G25A U73A U87A G127U | 0.03 |
| U26A C71A U109C A124G | 0.09 |
| G25C A65G G70A A79U A117G | 0.02 |
| A24U G74A A92U | 0.82 |
| U26C A77G U134G | 2.19 |
| U26A C28U U134C A138G | 0 |
| U26C G35A A124U | 1.14 |
| A24U A43U U46A | 1.15 |
| U26C U46C U91C A129U | 1.02 |
| U29A U46A U62C G125C | 0.01 |
| G25U A64U A121G | 0.32 |

| Variant | self-cleavage |
| --- | --- |
| A24U U115C C146U | 1.63 |
| U26A C38U U119C A142G | 1 |
| U26C U119C U132C | 2.07 |
| G25U A42G U100C A138U | 1.08 |
| U26C A69G A79G | 0.38 |
| U26G A79G U143C | 0.52 |
| A24U A124G A129G | 0.95 |
| U26C U39A A50U U108C | 1.23 |
| U26C A57G A77G U112A | 0.89 |
| U26C U46C U134C A138G | 1.84 |
| G25A U29C U62C | 0.03 |
| A24U U26C A65G A142G | 0 |
| U26C U39C A64G | 0.45 |
| U26C U39G A65G | 0 |
| U29A A59U C128U | 0.64 |
| A24U U39G U62A C133U A142G | 0.13 |
| U26C C37U A59G U100C | 0.15 |
| A24U U119A U132A A142G U143A | 1.38 |
| U26C U52C A69U U109C | 0.39 |
| U29C A30G U96A U102C | 0 |
| G25C C71U C110A A129G | 0.84 |

| Variant | self-cleavage |
| --- | --- |
| U26A U96C U115A | 0.09 |
| U26A G33U U39A | 1.45 |
| U29A A64G U100C | 0.52 |
| U26A U39C A57U U100C C113U | 0.18 |
| U26C A31U C101U | 1.06 |
| U29A U115C U143A | 0.64 |
| U26C U45C A50G | 1.02 |
| G25C A50G G72A A121U | 0.76 |
| G27A U108C A124G | 1.53 |
| U26G A94G U96C U112A U119A | 0 |
| U26C U73C A77U U87A U115A A117U | 0.06 |
| A24G U134C A142G | 0.84 |
| C28U A57G U108C | 1.84 |
| U26A A107G A129U | 0.95 |
| U26A U108C U115C | 1.07 |
| G27A U46C A78G | 1.53 |
| U26C A43G C66U U96C | 0.13 |
| U26C U96A U108C | 0.06 |
| U26C A42G G83A U130C | 1.59 |
| U29A U109G A117U | 0.42 |
| C28U U46C A67U A107G U108C | 0.18 |

| Variant | self-cleavage |
| --- | --- |
| U26C G32U A43G G139A C146A | 1.38 |
| U26C G86A U115C | 0.06 |
| U26A G48A A129U | 1.24 |
| A24U U47A A57G G86A | 0.11 |
| U26C U62C U100C | 0.88 |
| U26G U85A U143A | 0.09 |
| U29A A92G U108A U112A A136G | 0.23 |
| U26C G36A A141G | 1.27 |
| U26G U47A C116U | 1.01 |
| A24U G89A A107G | 0.03 |
| U26G U47A A136U A140G | 1.71 |
| C28A U87C G139A | 0.2 |
| G25A U45C U134A | 1.07 |
| A24U A31C A42G A64U A124G A141G | 0.66 |
| G25A A65G A121U U130A | 0.12 |
| U26A U87A A117G A138G | 0.18 |
| U26C A42G U85A A136G | 0 |
| U29A U62C C71U | 0.02 |
| U26C A94G U96C C120U A129G | 0 |
| G27A U29C U102C U132A | 1.34 |

From the RNAGym collection of RNA variant scans (doi:10.7554/elife.90254)
